We go through 1 molecule from US12290565B2, “Methods of using anti-PSGL-1 antibodies in combination with JAK inhibitors to treat T-cell mediated inflammatory diseases or cancers” (AltruBio Inc., priority 2021, dated 2025).

Test [1] has as its system patients with SR-aGVHD or TR-aGVHD. The test can be described thus: Phase 1 open-label study of 15A7H in SR-aGVHD or TR-aGVHD. The test is classed as in vivo, human. The following applies: 6-4-4-4 mg/kg weekly regimen. As for the experimental part: Anti-PSGL-1 antibody 15A7H was tested in patients with SR-aGVHD or TR-aGVHD using multiple doses of antibody. Study participants were assigned to receive a first dose of antibody 15A7H at 6 mg/kg, followed by weekly doses of antibody 15A7H at 4 mg/kg for 3 weeks (6-4-4-4 regimen).
This study included patients with SR-aGVHD without any prior systemic treatment other than corticosteroids, as well as patients with TR-aGVHD with one prior systemic treatment for aGVHD, including JAK inhibitors, in addition to corticosteroids. Participants treated with antibody 15A7H in combination with an additional systemic treatment were also included in the study.
An analysis of efficacy was conducted after enrollment of 24 participants in this study to determine the likelihood of reaching pre-established futility criteria. Of 24 participants, 12 participants were categorized as steroid refractory (SR) and 12 participants as treatment refractory (TR).

The subject of a further test is activated T cells. Nature of the test: T cell apoptosis assay (Annexin V/PI FACS), 15A7H and/or ruxolitinib. It is filed as cell-based, human. The protocol: T cell stimulation was achieved through Phytohemagglutinin-L (PHA) treatment prior to the apoptosis assays described below. In brief, human blood samples used in the study were obtained from heathy human donors. Peripheral blood mononuclear cells (PBMCs) were freshly isolated from whole blood by Ficoll-Hypaque gradient centrifugation (Ficoll-Paque PLUS, GE Healthcare, Cat #17-1440-03) at 2400 revolutions per minute (rpm) for 15 minutes at room temperature. The buffy coat layer containing mononuclear cells was collected and washed 3 times with phosphate-buffered saline (PBS) to minimize platelet contamination. […]
Fluorescence-activated cell sorting (FACS) analysis using the Annexin V/propidium iodide (PI) staining method was used to determine the apoptotic rate in drug- and control-treated cells. […]
Samples were run on a flow cytometer (BD LSR scanner; BD Biosciences, San Diego), and cell viability and apoptosis were calculated using a quadrant on the Annexin-V-FITC/PI histogram. Living cells were identified as those negatively stained for both fluorescence dyes, early apoptotic cells were identified as those only Annexin-V-FITC-positive, necrotic cells were identified as those only PI-positive, and late apoptotic cells were identified as those positively stained for both fluorescence dyes. […]

In test [2] the test system is xenogeneic GvHD in ASID mice engrafted with human PBMCs. The test can be described thus: Xenogeneic graft-versus-host disease (GvHD) mouse model, survival. The test is classed as in vivo. The following applies: ruxolitinib 45 mg/kg oral twice daily 15 days and/or 15A7H 10 mg/kg i.v. every 3 to 4 days, 5 doses. As for the experimental part:
8-9 weeks old female Advanced Severe Immuno-Deficiency (ASID) mice (NOD.Cg-Prkdc^scidIl2rg^tm1Wjl/YckNarl; NLAC NARLabs Taiwan) received a total body irradiation dose of 2.0 Gy and were engrafted with 3×10^6 human PBMCs by tail vein injection at 24 hours post irradiation. The mice were kept under pathogen-free conditions and reared under standardized methods as temperature set at 22±1° C. with a 12-hour daylight/dark cycle and full access to food and water. Experimental animals were randomly divided into treatment groups after receiving a minimum of 3 days of acclimatization to the environment.
Xenogeneic GvHD (xGvHD) was induced in ASID mice receiving 3×10^6 human PBMCs (n=5-7 per group). Post 72 hours of human PBMC engraftment, ruxolitinib at 45 mg/kg or vehicle was orally administered twice daily for 15 days, as well as anti-PSGL-1 15A7H antibody at 10 mg/kg or vehicle was intravenously administered every 3 to 4 days for total 5 doses. Mice were assessed for survival daily. The time of the treatment initiated was designated as Day 1.

B1: 15A7H: anti-PSGL-1 antibody, IgG4 hinge S228P; light chain SEQ ID NO:1, heavy chain SEQ ID NO:2 (antibody)
heavy: EVQLVESGGGLVQPGGSLRLSCAASGFTFSSFGMHWVRQAPGKGLEWVAYINGGSSTIFYANAVKGRFTISRDNAKNTLYLQMNSLRAEDTAVYYCARYASYGGGAMDYWGQGTLVTVSSASTKGPSVFPLAPCSRSTSESTAALGCLVKDYFPEPVTVSWNSGALTSGVHTFPAVLQSSGLYSLSSVVTVPSSSLGTKTYTCNVDHKPSNTKVDKRV[human IgG4 Fc with S228P (EU numbers) omitted here]
light: DIQMTQSPSSLSASVGDRVTITCRSSQSIVHNDGNTYFEWYQQKPGKAPKLLIYKVSNRFSGVPSRFSGSGSGTHFTLTISSLQPEDFATYYCFQGSYVPLTFGQGTKVEIKRTVAAPSVFIFPPSDEQLKSGTASVVCLLNNFYPREAKVQWKVDNALQSGNSQESVTEQDSKDSTYSLSSTLTLSKADYEKHKVYACEVTHQGLSSPVTKSFNRGEC
In the case of B1, the “Overall Response” value in test [1] (steroid refractory (SR) participants, 4/12) was found to be 33%; in test [1] (treatment refractory (TR) participants, 8/12), 67%. In addition, the “apoptosis-induction in activated T cells” value in the test on activated T cells (15A7H alone at 3 μg/mL, with antibody cross-linker, 48 hours, three donors) is “optimal apoptosis-induction”; in the test on activated T cells (15A7H alone at sub-optimal 0.03 μg/mL and 0.3 μg/mL, depending on the donor), “minimal to medium apoptosis-induction”. Also, the “effect on xenogeneic GVHD induced by human lymphocytes” value in test [2] was “ameliorated xenogeneic GVHD”.
